# Measured values published in publication PMC6919601, “Identification of Plasmodium dipeptidyl aminopeptidase allosteric inhibitors by high throughput screening” (PLoS ONE, 2019).
# Out of some 110,000 compounds screened, about 230 (0.21%) showed an effect of 50% or more. The list shows a part of the results.
# Molecular target: DPAP1 (Plasmodium falciparum, UniProt Q8IIJ9)
# Test: primary screen, percent inhibition; read by cleavage of a fluorogenic dipeptide substrate; higher = more effect of the substance
# Parameters: species or system P. falciparum D10 trophozoite lysates; single well
# 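Note: 30 min substrate incubation versus DMSO and 10 µM JCP410 controls.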
# DPAP1, sequence (Q8IIJ9 whole entry, looked up): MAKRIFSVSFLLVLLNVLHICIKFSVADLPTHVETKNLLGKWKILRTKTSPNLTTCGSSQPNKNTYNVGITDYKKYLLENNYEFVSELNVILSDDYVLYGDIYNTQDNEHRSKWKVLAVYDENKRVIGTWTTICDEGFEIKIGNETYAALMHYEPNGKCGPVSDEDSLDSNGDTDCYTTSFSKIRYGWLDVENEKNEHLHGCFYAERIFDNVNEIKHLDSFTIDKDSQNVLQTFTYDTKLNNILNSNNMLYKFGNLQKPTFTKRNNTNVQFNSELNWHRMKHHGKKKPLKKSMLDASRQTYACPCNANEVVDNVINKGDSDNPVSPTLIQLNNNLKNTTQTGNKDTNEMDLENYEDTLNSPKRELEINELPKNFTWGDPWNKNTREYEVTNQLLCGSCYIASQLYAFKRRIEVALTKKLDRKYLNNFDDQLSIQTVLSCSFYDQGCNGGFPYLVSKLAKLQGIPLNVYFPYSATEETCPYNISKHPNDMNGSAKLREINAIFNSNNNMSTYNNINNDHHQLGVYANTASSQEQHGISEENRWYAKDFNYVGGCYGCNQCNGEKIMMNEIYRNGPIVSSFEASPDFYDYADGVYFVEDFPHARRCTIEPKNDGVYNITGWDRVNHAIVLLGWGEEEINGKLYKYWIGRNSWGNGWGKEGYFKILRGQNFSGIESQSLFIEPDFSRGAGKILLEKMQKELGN
row,Structure (SMILES),% Inhibition @ 10 uM [%]
1,CCOC(=O)c1cnc(SCC(=O)Nc2sc(-c3ccccc3)cc2C(=O)OCC)nc1N,11.6
2,O=C(Nc1ccccc1)Nc1ccc(F)cc1,-5.57
3,CC1=C(C(=O)OCCc2ccccc2)C(c2ccc(C)s2)NC(=O)N1 (stereo not shown),2.94
4,CC(C)Cn1c(=O)c2cc3c(=O)n(CC(C)C)c(=O)c3c(C(=O)c3ccc(Cl)cc3)c2c1=O,-3.41
5,COc1ccc(/C=C/C(=O)c2c(O)cc(C)oc2=O)cc1,-4.01
6,COC1C(O)C2CC1C1C(=O)N(c3ccccc3O)C(=O)C21 (stereo not shown),-2.78
7,O=C(O)C1CC=CCC1C(=O)Nc1nc2ccc(Cl)cc2s1 (stereo not shown),1.39
8,CCCCOC(=O)c1nc2ncc([N+](=O)[O-])cn2n1,0.215
9,O=C1C2(c3ccccc3)CN3CC1(c1ccccc1)CN(C2)C3c1ccco1 (stereo not shown),0.248
10,Cc1ccc(-n2nc(C)c3c(C(=O)NCCc4ccco4)cc(C)nc32)cc1,-1.3
11,CCOc1ccc(CCNC(=O)c2[nH]c(C)c(C(C)=O)c2CC)cc1OCC,-4.96
12,COC(=O)c1cc(-c2ccc(Cl)cc2)nc2ccc(Br)cc12,3.85
13,COc1ccc(C(=O)CCN2CCCC(C)C2)cc1 (stereo not shown),1.19
14,COc1cccc(-c2nc(CS(=O)(=O)CC(=O)NCCCSC3CCCCC3)c(C)o2)c1,-0.138
15,CN1CCN(C(=O)CNS(=O)(=O)c2ccccc2)CC1,-6.62
16,C=CCN1C(=O)S/C(=C/c2cccn2-c2cccc(C(=O)O)c2)C1=O,0.83
17,Cc1cc(C)n(-c2ccccc2)c(=O)n1,0.0345
18,C/N=C1/S/C(=C/c2ccc(-c3cccc(Cl)c3C)o2)C(=O)N1C,-4.24
19,Nc1nc(-c2ccc(Cl)cc2)nn1S(=O)(=O)c1ccc(Cl)cc1,4.22
20,N#CCNC(=O)[C@@H](Cc1ccc(F)cc1)NC(=O)OCc1ccccc1,-10.2
21,O=C(NCc1cccnc1)c1cccc2c1C(=O)N(Cc1cccnc1)C2,-4.14
22,Cc1onc(-c2ccccc2)c1C(=O)Nc1ccccc1NC(=O)c1c(-c2ccccc2)noc1C,-2.94
23,c1cncc(-c2nnc(-c3cccnc3)nn2)c1,-1.11
24,Cc1cc(N2CCOCC2)n2nc(C)c(-c3ccc(Cl)cc3)c2n1,-0.256
25,O=C(NCc1ccccc1Cl)c1oc(=O)c2ccccc2c1-c1ccccc1,3.53

row,Structure (SMILES),% Inhibition @ 10 uM [%]
1,Cn1cc([N+](=O)[O-])c(C(=O)NC2CCCCC2)n1,-1.8
2,O=C(O)CC1Sc2ccccc2NC1=O (stereo not shown),-3.77
3,Cc1ccc(S(=O)(=O)N2CCN(c3cccc(Cl)c3)CC2)cc1,2.4
4,COc1ccc(C2c3sc(O)nc3SC3C4CC(C5C(=O)N(C(C)C(=O)O)C(=O)C45)C23)cc1 (stereo not shown),-3.52
5,Cc1cc(Cl)ccc1OC(C)C(=O)Nc1cc(Cl)ccc1C(=O)O (stereo not shown),-5.3
6,CCN(CC)CC(=O)Nc1cc(N(C)C)nc2ccccc12,3.44
7,CC1(C)CC(=O)C2=C(C1)OC(N)=C(C#N)C21C(=O)N(CO)c2ccccc21 (stereo not shown),-4.03
8,Cc1ccc(CNC(=O)C(C)n2sc3ccccc3c2=O)cc1 (stereo not shown),-0.856
9,O=C1CSC(c2ccccc2)N1c1ccc([N+](=O)[O-])cc1 (stereo not shown),4.68
10,CCOC(=O)c1ccc(Nc2ncnc3[nH]cnc23)cc1,6.83
11,CS(=O)(=O)c1nc(S(=O)(=O)c2ccc(Cl)cc2)c(NCCCc2ccccc2)s1,-2.25
12,COc1cccc(OC)c1C(=O)Nc1ccc2ccccc2c1,1.08
13,CNCc1ccccc1Sc1ccc(O)cc1,-1.91
14,CCOc1ccccc1N(CC(=O)NCc1ccccc1Cl)S(C)(=O)=O,-3.42
15,Cc1ccc(NC(=O)c2cccc(Cl)c2)c(C)c1,-0.482
16,CC1(C)CC2=NC3=C(C(=O)CC(C)(C)C3)C(c3ccccc3Cl)C2=C(O)C1 (stereo not shown),-2.54
17,CC(=O)Nc1ccc(CN2CCN(c3ccc([N+](=O)[O-])cc3)CC2)cc1,5.42
18,CCOC(=O)C1CCN(S(=O)(=O)c2c(C)cc(C)cc2C)CC1,-4.4
19,CCn1cnc2c(=O)oc3ccccc3c21,-1.14
20,CC(C)(OC(=O)c1ccccc1)C1Cc2cc3ccc(=O)oc3cc2O1 (stereo not shown),0.467
21,CC1(C)CCC(=O)N(c2ccccc2)C1=O,-4.49
22,CCN(CC)CCCOc1ccccc1F,-8.37
23,O=C(CCCn1sc2ccccc2c1=O)NCCCN1CCOCC1,-3.07
24,CC(=O)c1c(O)nc(C)c2c1CCCC2,0.135
25,Cc1cc(C(F)(F)F)nc2sc(C(=O)c3ccc4c(c3)OCO4)c(N)c12,10.9

row,Structure (SMILES),% Inhibition @ 10 uM [%]
1,COc1ccc(N2C(=O)C3C(C2=O)C2C=CC3C23CC3)cc1 (stereo not shown),2.38
2,CCOC(=O)N1CCN(C(=O)C2c3ccccc3C(=O)N(C)C2c2ccc(OC)cc2)CC1 (stereo not shown),-0.363
3,COC(=O)c1cc(S(=O)(=O)N2CCN(C(c3ccc(F)cc3)c3ccc(F)cc3)CC2)cn1C,1.44
4,COC(=O)c1c(NC(=O)c2ccccc2OC)sc2c1CCC(C)C2 (stereo not shown),-2.09
5,Cc1ccccc1C(=O)Nc1cccc(NC(=O)c2nc[nH]n2)c1,-0.0555
6,COc1cccc(N(CC(=O)Nc2ccc(Br)cc2)S(C)(=O)=O)c1,3.17
7,Cc1ccc(C2CC(=O)N3C(=C2C#N)SCC3(O)c2ccc(C)cc2)cc1 (stereo not shown),1.64
8,COc1ccc(C(=O)Nc2cccnc2)cc1,-3.69
9,COc1ccc(C(=O)Nc2ccc(S(=O)(=O)N3CCCCCC3)cc2)cc1Br,-1.24
10,CCn1cc(C(=O)N2CC=C(c3ccccc3)CC2)c(=O)c2ccc(C)nc21,1.76
11,COc1ccccc1CNC(=O)C1COc2ccccc2O1 (stereo not shown),-1.41
12,CCCCOc1ccc(C2c3c(-c4ccccc4O)n[nH]c3C(=O)N2CCO)cc1 (stereo not shown),-1.35
13,Cc1ccc(C(=O)Nc2ccc(Br)cc2)cc1,4.6
14,CCc1nn(C(C)C(=O)NCc2cccc(Cl)c2)c(=O)c2cc3occc3n12 (stereo not shown),4.55
15,N#Cc1cn(CC(=O)N2CCCC2)c2ccccc12,0.777
16,CCc1ccccc1N1C(=O)C2CC(C)=C(C)CC2C1=O (stereo not shown),-2.48
17,CC1CCc2c(sc3ncn(Cc4ccccc4Cl)c(=O)c23)C1 (stereo not shown),-3.41
18,CCOC(=O)C1CCCN(c2cc(C)c3cccc(SC)c3n2)C1 (stereo not shown),-4.75
19,CCc1nnc(NC(=O)c2nc(SC(C)C)ncc2Cl)s1,2.41
20,CC1CCCCN1S(=O)(=O)c1ccc(Cl)cc1 (stereo not shown),2.26
21,Cc1ccc(CNCCSc2nnnn2-c2ccccc2)cc1,-4.91
22,O=c1/c(=C/c2cn[nH]c2-c2ccc(Cl)cc2)sc2nc3ccccc3n12,-7.56
23,COc1ccc(-c2nn3c(-c4ccncc4)nnc3c3ccccc23)cc1,-1.35
24,COc1ccc(NC(=O)CN(c2ccc(F)cc2)S(C)(=O)=O)cc1Cl,-5.7
25,COc1ccc(NC(=O)CCC(=O)c2ccc(-c3ccccc3)cc2)cc1,3.53

row,Structure (SMILES),% Inhibition @ 10 uM [%]
1,Cc1ccc(Cn2nnc3c(O)nc(C4CCN(C(=O)CC(C)(C)C)CC4)nc32)cc1,-1.82
2,O=C(Nc1nccs1)C1CCCN1S(=O)(=O)c1ccc(F)cc1 (stereo not shown),-2.09
3,COc1ccc(N2C(=O)CCC(C(=O)c3ccccc3)=C2C)cc1,0.847
4,CCc1ccc(-n2c(C)cc(/C=C3/C(=N)N4C(=NC3=O)SN=C4S(C)(=O)=O)c2C)cc1,-3.39
5,CCCCNCC(O)Cn1c(=O)sc2ccccc21 (stereo not shown),0.829
6,Cc1ccc(S(=O)(=O)NC(=O)c2ccccc2)cc1C(C)C,4.41
7,COc1ccc(N2CCN(Cc3ccc(N(C)C)cc3)CC2)cc1,2.33
8,Cc1ccc2oc(=O)c3cc(C(=O)N4CCC(C)CC4)sc3c2c1,0.809
9,CC1CCCN(Cc2nc3c(c(=O)n(C)c(=O)n3C)n2Cc2cccc3ccccc23)C1 (stereo not shown),1.23
10,Cc1nn(CC(=O)NCc2ccc3c(c2)OCO3)c(=O)c2cc3sccc3n12,-1.58
11,O=C1CCCN1c1ccc(S(=O)(=O)NCc2ccccc2)cc1,3.32
12,O=C(c1ccc(C#CC2(O)CCCCC2)cc1)N1CCN(c2cccc(Cl)c2)CC1,5.2
13,O=C1c2cccnc2C(=O)N1Cc1ccc(F)cc1S(=O)(=O)NC1CCCc2ccccc21 (stereo not shown),-3.29
14,Cc1ccc(NC(=O)c2ccccc2[N+](=O)[O-])c(C)c1,-2.54
15,N=C(NOC(=O)N1CCOCC1)c1ccccc1,3.59
16,O=C(Cn1c(=O)n(Cc2ccccn2)c(=O)c2sc3ccccc3c21)c1ccc(F)cc1,2.04
17,O=C(NCCC1=CCCCC1)c1cccnc1S,32.2
18,CCC(C)NC(=O)c1ccccc1NS(=O)(=O)c1ccc(OC)c(OC)c1 (stereo not shown),0.727
19,CCN1CCC(C#N)(NC(=O)[C@H](Cc2c(F)cc(OC)cc2F)NC(=O)c2ccc(-c3cc(C(=O)O)ccc3Cl)cc2)CC1,-3.14
20,O=C1CCc2c1[nH]c1ccc(C3CCCCC3)cc21,-2.72
21,COc1cc(Br)cc2cc(C(=O)NCCc3c(C)[nH]c4ccc(C)cc34)c(=O)oc12,10.3
22,CCC1CCCCN1C(=O)CSc1nnc(-c2ccc(Cl)s2)o1 (stereo not shown),1.3
23,CCOc1ccc2nc(SCC(=O)Nc3ccccc3OC)c(C#N)cc2c1,3.05
24,COc1cc(C(=O)O/N=C2/C=CC(=O)C(C)=C2C)cc(OC)c1OC,3.47
25,COc1ccc(CCNc2ncnc3c2cnn3C)cc1OC,3.2
